Experimental data: the supplement of paper PMC10126150
Values marked as one replicate rest on one cluster of the flow cell; about a third of the high ones do not repeat.

system: ATP; test: switch fluorescence ratio, 500 uM ATP over buffer (Cy3 cluster intensity, sum of 5 cycles each) (fold (ratio)); higher = stronger signal-on switching upon ATP binding; sequences stand for … in TCGTCGGCAGCGTCAGATGTGTATAAGAGACAGTTTTTTTTTTTTTTTTTTTTTTTTT…TC; settings: aptamer strand: ATP DNA aptamer (quencher-CACCTGGGGGAGTATTGCGGAGGAAGG + anchor), 100 nM annealed; ATP concentration: 500 uM; one replicate
In short: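 The fluorescence ratio divides summed target-cycle Cy3 intensity by summed buffer-cycle Cy3 intensity for each cluster and is averaged per switch-domain sequence. Cy3-labelled switching-strand clusters on a modified Illumina MiSeq flow-cell were annealed to 100 nM quencher-labelled ATP aptamer, then imaged in selection buffer and again after 15 min with 500 uM ATP at 22 °C. Five such cycles were run, with NaOH stripping and re-annealing between them, and clusters outside 100-1000 RFU were excluded.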
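Further: ATP exposure 15 min at 22 °C before imaging.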

| Sequence | switch fluorescence ratio |
| --- | --- |
| ACAGCCGACG | 1.21 |
| ACAGCCTGCA | 1 |
| ACAGCGAAT | 1.01 |
| ACAGCGGACC | 1.04 |
| ACAGCGGCGG | 0.971 |
| ACAGCGGGAA | 0.943 |
| ACAGCGGGGA | 1.02 |
| ACAGGAACCA | 1.07 |
| ACAGGACGG | 1.1 |
| ACAGGAGACG | 1 |
| ACAGGATATA | 1.02 |
| ACAGGATTGA | 1.02 |
| ACAGGCCACT | 1.05 |
| ACAGGGCACA | 1.11 |
| ACAGGGGGC | 1.14 |
| ACAGGTACCA | 1.07 |
| ACAGGTGTCT | 0.953 |
| ACAGTAAAGT | 1.04 |
| ACAGTCATTT | 1.03 |
| ACAGTGACAC | 1.06 |
| ACAGTGGCTG | 1.03 |
| ACAGTGTCGG | 1.01 |
| ACAGTTCGGC | 1.03 |
| ACAGTTGCCA | 0.963 |
| ACATAATCAA | 1.02 |
| ACATACATAA | 1.15 |

| Sequence | switch fluorescence ratio |
| --- | --- |
| ACATAGGCCG | 0.982 |
| ACATAGGGTT | 1.03 |
| ACATATGCT | 1.04 |
| ACATATGGCG | 1.03 |
| ACATATTATC | 0.989 |
| ACATCCTGAA | 1.03 |
| ACATCGGTCG | 1.04 |
| ACATCTCGAC | 0.998 |
| ACATGAGCGA | 0.881 |
| ACATGCAATA | 1.77 |
| ACATGCATAG | 1.01 |
| ACATGGAGCG | 1.01 |
| ACATGGGACC | 1.07 |
| ACATGGGCTT | 0.962 |
| ACATGGTATC | 0.989 |
| ACATGGTCGA | 0.996 |
| ACATGTCA | 1.03 |
| ACATGTGGGC | 0.986 |
| ACATGTTGA | 0.934 |
| ACATGTTGAA | 1 |
| ACATTCATGG | 0.981 |
| ACATTGAAA | 1.03 |
| ACATTGCGCT | 0.999 |
| ACATTGCTTC | 0.999 |
| ACATTTGA | 1.01 |
| ACCAAAAAAT | 1.13 |

| Sequence | switch fluorescence ratio |
| --- | --- |
| ACCAAAACCG | 1.1 |
| ACCAAAAG | 1.01 |
| ACCAAAATCG | 1.07 |
| ACCAAATAGT | 1.02 |
| ACCAAGCTAG | 1.05 |
| ACCAAGGGAA | 1.02 |
| ACCAATGAGC | 1.1 |
| ACCAATGGAG | 1.04 |
| ACCAATTTG | 1.03 |
| ACCACCTGCA | 1.19 |
| ACCACGAGTG | 1.02 |
| ACCACGTACG | 1.68 |
| ACCACTCTTG | 1.04 |
| ACCAGACACG | 1.03 |
| ACCAGAGCTT | 1.07 |
| ACCAGCCCCC | 1.08 |
| ACCAGCGGGG | 1.06 |
| ACCAGCTACC | 1.18 |
| ACCAGGAATA | 1 |
| ACCAGTCAAC | 1.04 |
| ACCAGTCCCC | 1.03 |
| ACCAGTTATC | 1.02 |
| ACCAGTTGGC | 1.01 |
| ACCATAGGCG | 1.06 |
| ACCATATTCG | 1.33 |
| ACCATCGCTT | 1.09 |

| Sequence | switch fluorescence ratio |
| --- | --- |
| ACCATGGCAG | 1.03 |
| ACCATGGGAC | 1.09 |
| ACCATTCGGG | 1.01 |
| ACCCAATACC | 3.21 |
| ACCCAATTCC | 1.17 |
| ACCCACGATG | 1.47 |
| ACCCAGGATA | 1.18 |
| ACCCAGGATG | 3.91 |
| ACCCAGTTGA | 1.26 |
| ACCCAGTTTT | 1.09 |
| ACCCCCTTTG | 1.32 |
| ACCCCGAGGG | 1.02 |
| ACCCGAGCCA | 1.04 |
| ACCCGCCGCT | 1.29 |
| ACCCGCGGGC | 1.06 |
| ACCCGGAATG | 1.84 |
| ACCCGGCTAG | 1.03 |
| ACCCGGGGGC | 1.33 |
| ACCCGTAACG | 1.08 |
| ACCCGTCGCT | 1.07 |
| ACCCTAGGTC | 1.12 |
| ACCCTAGTCT | 1.04 |
| ACCCTGCGTC | 1.07 |
| ACCCTGTGAT | 0.983 |
| ACCGAAGGTT | 1.01 |
| ACCGAGAGAG | 0.994 |

| Sequence | switch fluorescence ratio |
| --- | --- |
| ACCGATATGA | 1.01 |
| ACCGATTATG | 1.05 |
| ACCGCACAAG | 1.46 |
| ACCGCAGTCT | 1.18 |
| ACCGCATATG | 2.6 |
| ACCGCCCCCC | 3.37 |
| ACCGCCTATG | 1.15 |
| ACCGCGAGTA | 1.06 |
| ACCGCTTGAG | 1.03 |
| ACCGGAATCG | 1.09 |
| ACCGGAG | 1.11 |
| ACCGGATTGG | 1.04 |
| ACCGGATTTT | 0.988 |
| ACCGGCATCG | 1.03 |
| ACCGGGACCT | 1.32 |
| ACCGGGGAAA | 0.956 |
| ACCGGTGCCT | 1.05 |
| ACCGGTTT | 1.01 |
| ACCGTCTCAC | 1.13 |
| ACCGTGCTGT | 1.03 |
| ACCTAAAGAT | 1.06 |
| ACCTAGTCTT | 1.06 |
| ACCTATACGT | 1.06 |
| ACCTATATTT | 1.01 |
| ACCTCCGAGA | 4.75 |
| ACCTCGTCA | 1.06 |

| Sequence | switch fluorescence ratio |
| --- | --- |
| ACCTCGTGCG | 0.982 |
| ACCTCTGGGC | 1.07 |
| ACCTGACTAT | 1.15 |
| ACCTGAGGTG | 1.51 |
| ACCTGCCCAC | 1.16 |
| ACCTGGTATT | 1.03 |
| ACCTGGTGAG | 1.1 |
| ACCTGTATCT | 1.04 |
| ACCTGTTCGG | 1.04 |
| ACCTTAAATT | 1.11 |
| ACGAAAACTT | 1.07 |
| ACGAAAGAT | 1.08 |
| ACGAAATGCG | 1.1 |
| ACGAATACTC | 3.42 |
| ACGAATAGCA | 1.06 |
| ACGAATTGAG | 0.986 |
| ACGACAGTTC | 1.06 |
| ACGACCAAAT | 1.29 |
| ACGACCCGAG | 1.2 |
| ACGACCGCTA | 2.73 |
| ACGACCTCGC | 1.48 |
| ACGACGGTAT | 1.35 |
| ACGACTATTG | 1.07 |
| ACGAGAAGGC | 1.02 |
| ACGAGAATAT | 1.05 |
| ACGAGAGAGT | 1.04 |

| Sequence | switch fluorescence ratio |
| --- | --- |
| ACGAGAGGCT | 0.936 |
| ACGAGCTTC | 1.09 |
| ACGAGGAATC | 1.08 |
| ACGAGTCGTG | 1.03 |
| ACGAGTGGCT | 0.967 |
| ACGAGTGTGC | 0.983 |
| ACGATAAAGT | 1.47 |
| ACGATACTCT | 1.62 |
| ACGATCTCAC | 1.11 |
| ACGATGAATG | 1.03 |
| ACGATGGGAA | 0.97 |
| ACGATTGTCA | 1.03 |
| ACGATTTAGG | 0.985 |
| ACGCAAGAAT | 2.3 |
| ACGCAGATTT | 1.13 |
| ACGCATGTTG | 0.991 |
| ACGCCACGCG | 1.05 |
| ACGCCGCGTG | 1.1 |
| ACGCCTTTTT | 1.01 |
| ACGCGGAGTT | 1.02 |
| ACGCGGGGGC | 1.05 |
| ACGCTAAA | 1.51 |
| ACGCTAAATT | 1.18 |
| ACGCTAAGGC | 1.31 |
| ACGCTATACA | 3.58 |
| ACGCTCATGC | 1.82 |

| Sequence | switch fluorescence ratio |
| --- | --- |
| ACGCTCTCTT | 1.03 |
| ACGCTGGGTG | 1.16 |
| ACGCTTTGCC | 1 |
| ACGGAAGAAT | 1.06 |
| ACGGAAGTTT | 1 |
| ACGGAATGTC | 1.21 |
| ACGGACCTT | 1.41 |
| ACGGATCGCG | 1 |
| ACGGATGAGC | 0.972 |
| ACGGATGCA | 1.05 |
| ACGGATTGTT | 0.971 |
| ACGGCACTGC | 1.12 |
| ACGGCCATTG | 1.04 |
| ACGGCGGCAG | 1.03 |
| ACGGCGGTTG | 1 |
| ACGGCGTCGG | 1 |
| ACGGCTAAAT | 1.04 |
| ACGGCTACGT | 0.999 |
| ACGGCTTGAT | 1.03 |
